From PubChem BioAssay (NCATS)
Values joined by “and” are separate entries in the source; they are usually repeats but may differ in a detail not shown here. Equal entries are not always repeated. Inconclusive means that the source gave no clear call. Such entries were picked first, then a sample of the others. Where the call is inconclusive, the potency comes from a doubtful curve fit. Active and inactive are the calls of the source. Calls come from the whole dose curve; as a rule, active = well fitted inhibition curve with a large enough effect; inconclusive = small, poorly fitted or top-dose-only effect; inactive = flat fitted curve, though single readings scatter. Numbered stars: 1 amine (or outer) side, 2 acyl side, 3 side chain; on linkers, the order of the positions; unused ones are H or OH. Square brackets hold non-standard residues; d marks the D form. Peptide text beside a SMILES is read from it. X9 = O=C([C@@H](CC(O)CCl)O[*:1])[*:2]; aIle = CC[C@@H](C)[C@H](N)C(=O)O; NMeV = CN[C@H](C(=O)O)C(C)C; NMeA = CN[C@@H](C)C(=O)O; βAla = NCCC(=O)O
Potency is the fitted concentration of half-maximal effect; tags give direction and shape of the fitted curve.

Assay: P-glycoprotein substrates identified in KB-8-5-11 adenocarcinoma cell line, qHTS therapeutic library screen (AID 1346987); note: nearly all actives have a fitted effect of over 65% in size
Details: KB-8-5-11 (P-gp overexpressing) viability, CellTiter-Glo, 72 h; series mostly up to 44.5 µM
Procedure, shortened: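 In this qHTS, P-gp-rich KB-8-5-11 cells received library compounds across a concentration range. Viability was quantified by luminescence after 72 h at 37 degree C.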
With `C[C@]12CC[C@@H]3c4ccc(OC(=O)N(CCCl)CCCl)cc4CC[C@H]3[C@@H]1CC[C@@H]2OP(=O)(O)O` the Potency was inconclusive: 23.5 µM [inhibitor, single point] and inactive and inconclusive: 29.1 µM [inhibitor, single point].
In the case of `O=C(NC(O)C(Cl)(Cl)Cl)NC(O)C(Cl)(Cl)Cl` (centres undefined), the Potency is reported as “inactive”.
For `C=C1CC[C@@]2(O)[C@H]3Cc4ccc(O)c5c4[C@@]2(CCN3CC2CC2)[C@H]1O5`, the Potency was “inactive”.
With `COc1cc(C[C@@H](C)N)c(OC)cc1C` the Potency was inconclusive: 20 µM [inhibitor, partial curve].
For `O=C1CN=C(c2cccc(Br)c2)c2oc3ccccc3c2N1`, the Potency was active: 14.6 µM.
In the case of `COc1ccccc1CN[C@H]1C2CCN(CC2)[C@H]1C(c1ccccc1)c1ccccc1`, the Potency is reported as inconclusive: 16.4 µM [inhibitor, partial curve].
In the case of `CC(=O)OC[C@]12C[C@H](OC(=O)CC(C)C)C(C)=C[C@H]1O[C@@H]1[C@H](O)[C@@H](OC(C)=O)[C@@]2(C)[C@@]12CO2`, the Potency is reported as active: 0.0252 µM.
With `C=C1C(=O)CC2OC2(C)CC2OC(=O)C(=C)C2C(O)C1OC(=O)/C(C)=C\C` (centres undefined) the Potency was inconclusive: 16.1 µM [inhibitor, single point].
For `C#C[C@]1(O)CC[C@H]2[C@@H]3CCC4=CC(=O)CCC4=C3C=C[C@@]21CC`, the Potency was active: 2.06 µM.
In the case of `O=C1c2ccccc2C(=O)C1C(=O)C(c1ccccc1)c1ccccc1`, the Potency is reported as inconclusive: 29.1 µM [inhibitor, single point].
With `CN1C(=O)CN=C(c2ccccc2)c2cc([N+](=O)[O-])ccc21` the Potency was inconclusive: 6.51 µM [inhibitor, partial curve, poor fit].
In the case of `C[C@H](CN1CCOCC1)C(C(=O)N1CCCC1)(c1ccccc1)c1ccccc1`, the Potency is reported as inconclusive: 22.4 µM [inhibitor, partial curve].
For `CC(CCc1ccccc1)NC(C)C(O)c1ccc(O)cc1` (centres undefined), the Potency was “inactive”.
With `O=c1[nH]c2ccc(Cl)cc2c(N[C@@H]2CN3CCC2CC3)c1-c1nc2ccccc2[nH]1` the Potency was active: 1.66 µM and inconclusive: 1.3 µM [inhibitor, full curve, poor fit].
For `COc1ccc2c(c1)c(CCN(C)C)cn2S(=O)(=O)c1ccccc1`, the Potency was “inactive”.
For `CO[C@@H]1[C@H](O)[C@@H](O[C@@H]2C[C@H]3CC[C@@H]4C(CC[C@]5(C)[C@@H](C6=CC(=O)OC6)CC[C@]45O)[C@@]3(C)[C@H](O)C2)O[C@H](C)[C@@H]1O` (some centres undefined), the Potency was active: 0.252 µM.
With `CC1=CC2/C=C(\C)CCC(O)C(O)/C=C/C(=O)C23C(=O)NC(CC(C)C)C3C1C` (centres undefined) the Potency was inconclusive: 12.6 µM [inhibitor, single point].
In the case of `CN(CC[C@H](N)CC(=O)N[C@H]1C=C[C@@H](n2ccc(N)nc2=O)O[C@@H]1C(=O)O)C(=N)N`, the Potency is reported as inconclusive: 5.31 µM [inhibitor, single point].
For `CN(Cc1cccc(-c2ccncc2)c1)C(=O)Oc1ccc(-c2ccc(C(N)=O)cc2)cc1`, the Potency was “inactive”.
In the case of `CCCCOC(=O)c1ccnc2cc(C(OCCN3CCCCC3)c3ccccc3Cl)sc12` (centres undefined), the Potency is reported as inconclusive: 29.1 µM [inhibitor, single point].
For `CCOc1ccc2c3c1O[C@H]1[C@@H](O)C=C[C@H]4[C@@H](C2)N(C)CC[C@@]341`, the Potency was “inactive”.
For `CCCOC(=O)Cc1ccc(OCC(=O)N(CC)CC)c(OC)c1`, the Potency was inconclusive: 18.4 µM [inhibitor, partial curve, poor fit].
For `C#CC1(O)CCC2C3CCC4=CC(=O)CCC4=C3C=CC21C` (centres undefined), the Potency was active: 2.91 µM.
With `CN(C(=O)C(c1ccccc1)c1ccccc1)[C@H](CN1CC[C@H](O)C1)c1ccccc1` the Potency was inconclusive: 4.61 µM [inhibitor, full curve].
For `CCN[C@@H](C)Cc1ccccc1`, the Potency was “inactive”.
For `CCNC(=O)CC1N=C(c2ccc(Cl)cc2)c2cc(OC)ccc2-n2c(C)nnc21` (centres undefined), the Potency was “inactive”.
With `C[C@]12CC[C@H](O[C@@H]3O[C@H](CO)[C@@H](O)[C@H](O)[C@H]3O[C@@H]3O[C@H](CO)[C@@H](O)[C@H](O)[C@H]3O)CC1=CC[C@@H]1[C@@H]2CC[C@]2(C)[C@@H](C3=CC(=O)OC3)CC[C@]12O` the Potency was inconclusive: 7.69 µM [inhibitor, single point].
In the case of `CCc1cc(OC)c(C[C@H](C)N)cc1OC`, the Potency is reported as inconclusive: 63.1 µM [inhibitor, single point].
With `C/C(=C\c1csc(C)n1)[C@@H]1C[C@@H]2O[C@@H]2CCC[C@H](C)[C@H](O)[C@@H](C)C(=O)C(C)(C)[C@@H](O)CC(=O)O1` the Potency was active: 0.0058 µM.
With `CN1C(=O)[C@@H](NC(=O)c2cc3ccccc3[nH]2)N=C(c2ccccc2)c2ccccc21` the Potency was inconclusive: 8.2 µM [inhibitor, partial curve].
In the case of `CCC(C)/C=C(C)/C=C/C1=CC2=C(Cl)C(=O)C(C)(OC(C)=O)C(=O)C2=CO1` (centres undefined), the Potency is reported as “inactive”.
With `CCOP(=S)(OCC)O/N=C(\C#N)c1ccccc1` the Potency was “inactive”.
In the case of `COC1(C[S@@](=O)c2ccccc2)CCN(CCc2c[nH]c3ccc(F)cc23)CC1`, the Potency is reported as “inactive”.
For `COc1cc(CCNCc2ccccc2O)c(OC)cc1C#N`, the Potency was inconclusive: 16.4 µM [inhibitor, partial curve, poor fit].
With `C[C@@H]1CCC/C=C/[C@H]2C[C@@H](O)C[C@@H]2[C@@H](O)/C=C/C(=O)O1` the Potency was active: 0.164 µM.
With `Cc1sc2c(c1C)C(c1ccc(Cl)cc1)=NC(CC(=O)OC(C)(C)C)c1nnc(C)n1-2` (centres undefined) the Potency was active: 1.16 µM.
For `CC[C@@H](C)[C@@H]1NC(=O)[C@@H]2CCCN2C(=O)[C@@H](CC(O)CCl)OC(=O)CCNC(=O)[C@H](C)N(C)C(=O)[C@H](C(C)C)N(C)C1=O` (some centres undefined) (cyclo([NMeA][βAla][X9]P[aIle][NMeV])), the Potency was “inactive”.
In the case of `C#C[C@]1(OC(=O)CCCCCC)CC[C@H]2[C@@H]3CCC4=CC(=O)CC[C@@H]4[C@H]3CC[C@@]21C`, the Potency is reported as active: 20.6 µM.
For `Cc1cccc(NC(=O)N[C@H]2CN(C)c3ccccc3C(c3ccccc3)=N2)c1`, the Potency was inconclusive: 29.1 µM [inhibitor, partial curve, poor fit].
